Laboratory results: PubChem BioAssay AID588855 (National Center for Advancing Translational Sciences (NCATS), 2011)
Among all 410,000 compounds or so, about 5,000 (1.2%) were called active. Inconclusive means that the source gave no clear call. Such entries were picked first, then a sample of the others. The call rests on the fitted dose curve; in most records, active means well fitted inhibition curve with a large enough effect; inconclusive means small, poorly fitted or top-dose-only effect; inactive means no such curve, though single readings can be large or run the other way. Potencies of inconclusive entries are doubtful fits and often do not repeat.

Assay: qHTS for Inhibitors of TGF-b; further: nearly all actives have a fitted effect of over 65% in size
Settings: HepG2 CAGA-GFP TGF-b/SMAD3 reporter, GFP fluorescence, 18 h, TGF-beta stimulated, 500 pg/mL final; series mostly up to 46.1 µM
In short: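 First, reporter cells (HEPG2 CAGA-GFP) rested 2 h at 37 degrees C. Next, compounds were pinned in and TGF-beta added to 500 pg/mL final. After 18 h, GFP was imaged per cell and summed per well.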
Potency means the concentration at half of the fitted maximal effect; tags describe the fitted curve by direction and shape.

Row | SMILES | Potency
1 | O=C(Nc1cccc(Cl)c1)c1cc(N=Nc2ccc([N+](=O)[O-])cc2Cl)ccc1O | inconclusive: 1.58 µM [inhibitor, full curve]
2 | COc1ccc(/C=C/c2nc(-c3ccccc3O)n[nH]2)cc1OC | inactive
3 | Oc1ccccc1-c1nc(N2CCN(Cc3ccccc3)CC2)c2ccccc2n1 | inconclusive: 8.91 µM [inhibitor, partial curve]
4 | CCc1ccc(C(=O)c2cn(CC(=O)Nc3ccc4c(c3)OCO4)c3ccc(F)cc3c2=O)cc1 | inconclusive: 35.5 µM [inhibitor, single point]
5 | O=C(O)CSc1ncnc2sc3c(c12)CCCC3 | inactive
6 | COc1ccc(-c2csc(Nc3ccccc3)[n+]2Cc2ccccc2)cc1 | inconclusive: 17.8 µM [inhibitor, single point]
7 | CCOc1ccccc1CNC(=O)C1CCN(c2nc3ccccc3nc2C(F)(F)F)CC1 | inconclusive: 35.5 µM [inhibitor, single point]
8 | CCc1nc2c(OCc3cc(Cl)cc(Cl)c3)cccn2c1N(C)C(=O)Nc1ccccc1OC | inconclusive: 22.4 µM [inhibitor, single point]
9 | CCc1ccccc1NC(=O)CN1C(=O)C2CCCN2c2ncc(Cl)cc21 (stereo not given) | inactive
10 | CCN(CC)S(=O)(=O)c1ccc2c(c1)c(=O)c(C(=O)N1CCN(c3cccc(Cl)c3)CC1)cn2C | inconclusive: 0.447 µM [inhibitor, full curve, poor fit]
11 | Cc1cc(CN2CCOCC2)c(O)c(C2(C)CCCCC2)c1 | inconclusive: 22.4 µM [inhibitor, single point]
12 | Nc1nonc1C(=O)NCCNC(=O)c1cccc(Cl)c1 | inactive
13 | O=c1cc(-c2ccc(F)cc2)oc2ccccc12 | inactive
14 | CC(/C=C/c1ccccc1)=N\NC(N)=S | inconclusive: 8.91 µM [inhibitor, partial curve, poor fit]
15 | COc1ccccc1N1CCN(c2nc(C)nc3c2oc2ccccc23)CC1 | inconclusive: 20 µM [inhibitor, single point]
16 | Cc1ccc(OCC(O)CNCc2ccc(F)cc2)cc1 (stereo not given) | inconclusive: 25.1 µM [inhibitor, single point]
17 | CCOC(=O)N1CCC(NC(=O)CSCc2nc(-c3cccc(OC)c3)oc2C)CC1 | inconclusive: 10 µM [inhibitor, partial curve, poor fit]
18 | CCN(CC)c1ccc(NS(=O)(=O)c2cc(-c3cc(C)no3)ccc2C)c(C)c1 | inconclusive: 7.08 µM [inhibitor, full curve]
19 | CCNc1nc2c(c(=O)[nH]c(=O)n2C)n1CC(C)C | inactive
20 | O=C(CCN1CCc2ccccc2C1)c1ccc2c(c1)OCCO2 | inconclusive: 17.8 µM [inhibitor, partial curve, poor fit]
21 | CCCNC(=O)N1CCCN(S(=O)(=O)c2ccc3c(ccn3CC)c2)CC1 | inactive
22 | COc1ccc2c(c1)C(C)=CC(C)(C)N2C(=O)CNCc1ccc2c(c1)OCO2 | inconclusive: 14.1 µM [inhibitor, single point]
23 | Oc1ccc(CCNc2c3ccccc3nc3ccccc23)cc1O | inconclusive: 22.4 µM [inhibitor, single point]
24 | Cc1ccccc1N1CCN(C(=S)c2ccc([N+](=O)[O-])cc2)CC1 | inconclusive: 11.2 µM [inhibitor, partial curve]

Row | SMILES | Potency
25 | Cc1ccc(C(=O)CSc2nnc(COc3ccccc3)o2)cc1 | inactive
26 | Cc1ccc(/C=N/Nc2ccnc3cc(Cl)ccc23)c(C)c1 | inconclusive: 10 µM [inhibitor, partial curve, poor fit]
27 | COC(=O)c1ccc(N2C(=O)CC(NCc3ccccc3)C2=O)cc1 (stereo not given) | inactive
28 | Cc1ccccc1C(=O)N1CCC(C(=O)N2CCN(c3ncccn3)CC2)CC1 | inactive
29 | COc1cc2c(cc1OC)CN(C(=O)CCNC(=O)c1ccccc1Cl)CC2 | inactive
30 | CC(C)c1ccc(NC(=O)CCCN2C(=O)NC(C)(C)C2=O)cc1 | inconclusive: 0.891 µM [inhibitor, full curve, poor fit]
31 | CCOC(=O)N1CCN(S(=O)(=O)c2ccc(C(=O)N(CCCN(C)C)c3nc4ccc(Cl)cc4s3)cc2)CC1 | inconclusive: 17.8 µM [inhibitor, single point]
32 | CCOC(=O)c1c(NC(=O)CSc2nnc(CNc3ccc(C)cc3C)o2)sc(C)c1C | inconclusive: 2.51 µM [inhibitor, partial curve, poor fit]
33 | O=Cc1cc2ccccc2nc1SCc1ccc(Cl)c(Cl)c1 | inactive
34 | Cc1ccc(Nc2cc(C)nn2-c2nc(C)cc(=O)[nH]2)cc1 | active: 2.24 µM
35 | O=C(NCc1ccccc1)c1cc(C2CCCN(S(=O)(=O)c3cccs3)C2)on1 (stereo not given) | inactive
36 | Cc1ccc(-n2cc(C(=O)OCc3ccc(F)c(F)c3)c3ccccc3c2=O)cc1 | inconclusive: 0.794 µM [inhibitor, partial curve, poor fit]
37 | COc1ccc(OC)c(NC(=O)Cn2c(=O)cc(C)c3c(C)nn(-c4cccc(Cl)c4C)c32)c1 | inconclusive: 14.1 µM [inhibitor, partial curve, poor fit]
38 | Cc1ccc(CN2CCN(C(=O)c3cccc4ccccc34)CC2)cc1 | inconclusive: 8.91 µM [inhibitor, partial curve, poor fit]
39 | COc1ccc2nc(Nc3sc4c(c3C(N)=O)CCCC4)sc2c1 | inconclusive: 35.5 µM [inhibitor, single point]
40 | CCOC(=O)N1CCN(C(=O)COC(=O)c2cc(C)ccc2C)CC1 | inactive
41 | Cc1cccc(NC(=S)NC(NC(=O)c2ccco2)C(Cl)(Cl)Cl)c1 (stereo not given) | inconclusive: 25.1 µM [inhibitor, single point]
42 | COc1cccc(-n2ccnc2SCC(=O)N2CCCc3ccccc32)c1 | inconclusive: 15.8 µM [inhibitor, single point]
43 | Cc1ccc(OCCn2cc(/C=N/NC(=O)c3ccncc3)c3ccccc32)cc1 | inconclusive: 2 µM [inhibitor, partial curve]
44 | CCN1CN(CCc2ccccc2)CNC1=S | inactive
45 | Cc1cc(/C=C(/C#N)c2nc3ccccc3[nH]2)c(C)n1-c1cccc([N+](=O)[O-])c1 | inactive
46 | Cc1cccc(Nc2nnc(SC/C(O)=C(\C#N)c3nc4ccccc4[nH]3)s2)c1C | inconclusive: 17.8 µM [inhibitor, single point]
47 | O=C(/C=C/c1ccc(OCCCF)cc1)N1CCOCC1 | inactive
48 | O=C1C2=C(c3ccccc31)[N+](=O)C1CCCCC1N2[O-] (stereo not given) | inactive

Row | SMILES | Potency
49 | CNC(=S)N(Cc1ccc(OC)cc1)C1CC(=O)N(c2ccc(Cl)cc2)C1=O (stereo not given) | inconclusive: 35.5 µM [inhibitor, single point]
50 | O=C(NC1=NCCS1)c1cccc(S(=O)(=O)N2CCOCC2)c1 | inactive
51 | COC(=O)CCCn1c(C)cc(C(=O)CCl)c1C | inconclusive: 35.5 µM [inhibitor, single point]
52 | Fc1ccccc1CSCc1nc2ccccc2[nH]1 | inconclusive: 35.5 µM [inhibitor, partial curve, poor fit]
53 | CCc1cccc(NS(=O)(=O)c2ccc3c(c2)CC(C)N3C(=O)C2CC2)c1 (stereo not given) | active: 7.08 µM
54 | CCc1c(C)c2ccc(O)c(CN3CCN(c4ccc(F)cc4)CC3)c2oc1=O | inconclusive: 35.5 µM [inhibitor, single point]
55 | O=c1[nH]c2ccc(Cl)cc2c(-c2ccccc2)c1SC(=S)N1CCOCC1 | active: 12.6 µM
56 | COc1cccc(CNC(C)(C)CO)c1OCc1ccc(Cl)cc1 | inconclusive: 6.31 µM [inhibitor, single point]
57 | CCn1c(CNC(=O)c2ccc(OC)cc2)nnc1SCC(=O)Nc1cc(C)ccc1C | inconclusive: 14.1 µM [inhibitor, single point]
58 | NC(Cc1ccccc1)c1csc(Nc2nccc(C(F)(F)F)n2)n1 (stereo not given) | active: 15.8 µM
59 | COc1ccccc1/C=N/NC(=O)c1nnn(-c2nonc2N)c1-c1ccccc1 | inactive
60 | CCOC(=O)Oc1c(OC)cc(C(=O)O[C@@H]2C[C@@H]3CN4CCc5c([nH]c6cc(OC)ccc56)[C@H]4C[C@@H]3[C@H](C(=O)OC)[C@H]2OC)cc1OC | inconclusive: 15.8 µM [inhibitor, single point]
61 | C#Cc1ccc([C@@H]2C=C(C(=O)OCC=C)O[C@H](OCc3ccc(CO)cc3)C2)cc1 | inactive
62 | CCCOc1ccc(C(=O)Nc2ccc(NC(=O)c3cccs3)cc2)cc1 | inactive
63 | Cn1c(=O)c2sccc2n2c(CCCC(=O)Nc3ccc(Oc4ccccc4)cc3)nnc12 | active: 12.6 µM
64 | CCOC(=O)COc1ccc(-c2nnn(CC(=O)Nc3ccccc3)n2)cc1 | inconclusive: 14.1 µM [inhibitor, single point]
65 | O=C1CSC(c2cn(-c3ccccc3)nc2-c2ccccc2)N1Cc1ccco1 (stereo not given) | inconclusive: 31.6 µM [inhibitor, single point]
66 | Cc1ccc(S(=O)(=O)N2CCN(C(C)C(=O)NCC(C)c3ccccc3)CC2)cc1 (stereo not given) | inconclusive: 8.91 µM [inhibitor, partial curve, poor fit]
67 | Nc1nc(CCl)nc(Nc2cccc3ccccc23)n1 | active: 11.2 µM
68 | CC12CS(=O)(=O)CC1SC(=S)N2c1ccccn1 (stereo not given) | inconclusive: 20 µM [inhibitor, partial curve, poor fit]
69 | COc1ccc(N2CCN(S(=O)(=O)c3ccc4c(c3)C(C(C)C)C(=O)N4)CC2)cc1 (stereo not given) | inconclusive: 2.51 µM [inhibitor, partial curve, poor fit]
70 | CC(OC(=O)c1ccc(O)cc1)C(=O)Nc1cc(C(F)(F)F)ccc1Cl (stereo not given) | inconclusive: 31.6 µM [inhibitor, single point]
